Results from PubChem BioAssay (NCATS).
This list was built around the results that the source calls inconclusive (neither active nor inactive); the mix of calls is not that of the screen. Entries that show only a call come without a potency. For part of these data: A potency beside an inconclusive call is a rough fit, not a confirmed value. Active and inactive are the calls of the source. The call rests on the fitted dose curve; in most records, active means well fitted curve in the direction sought with a large enough effect; inconclusive means small, poorly fitted or top-dose-only effect, or another doubt; inactive means no such curve, though single readings can be large; an effect the other way counts as inactive or inconclusive.

How the values were obtained:
[1] = qHTS for Inhibitors of ATXN expression: Validation of Cytotoxic Assay (AID 588349); settings: cytotoxicity counter-screen for ATXN expression inhibitors, cell viability; series mostly up to 57.1 µM;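 further: cells exposed to compound for 72 hr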
Summary of the method: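 HEK293, compound dose series, 72 hr / 37 degrees C; viability via CellTiter Glo (intracellular ATP).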

[2] = qHTS for Inhibitors of ATXN expression: Validation (AID 588378); settings: cell-based ATXN2 expression reporter assay, luminescence; series mostly up to 57.1 µM; further: nearly all actives have a fitted effect of over 75% in size; further: potency means the concentration at half of the fitted maximal effect
Summary of the method: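 Luminescence from an ATXN2-FFLuc reporter in HEK293 cells served as read-out after 24 h compound treatment at 37 degrees C; CellTiter-Fluor fluorescence was recorded first to assess viability.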
Tags describe the fitted curve by direction and shape.

Structure (SMILES) | Potency [1] | Potency [2]
CCC(C)N(C)C(=O)c1cc2ccccc2c(-c2ccccc2Cl)n1 (stereo not drawn) | inactive | –
CC(C)NCC(O)c1ccc(NS(C)(=O)=O)cc1 (stereo not drawn) | – | inactive
O=C1N(c2ccccc2)c2ccccc2C1(Cc1ccncc1)Cc1ccncc1 | – | inconclusive: 10 µM [inhibitor, partial curve, poor fit]
